Laboratory results taken from the supplement of paper PMC8285479.
Structures can show the parent of a compound that is named as a salt. ± gives the standard deviation of the averaged measurements. The full ranking holds about 1,900 compounds; the median of “normalised cell viability (NPI; 0 = phenylarsine oxide control, 1 = DMSO control)” is about 1, and the lowest 2% start at about 0.039. The list shows a part of the results.

Tested on: NCI-H1944
Experiment: normalised cell viability (NPI; 0 = phenylarsine oxide control, 1 = DMSO control) (fraction of DMSO control); NCI-H1944 is a non-small cell lung cancer line; higher = more viable cells (less compound toxicity)
Conditions: 6 days
[1] = glucocorticoid arm: hydrocortisone 2.75 uM co-treatment, compound 1 µM
[2] = glucocorticoid arm: hydrocortisone 2.75 uM co-treatment, compound 5 µM
[3] = glucocorticoid arm: hydrocortisone 2.75 uM pre-treated 2 days and continued, compound 1 µM
[4] = glucocorticoid arm: hydrocortisone 2.75 uM pre-treated 2 days and continued, compound 5 µM
[5] = glucocorticoid arm: vehicle, compound 1 µM
[6] = glucocorticoid arm: vehicle, compound 5 µM
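Note: CTB read-out in 384-well plates, mean of triplicate wells, normalised per plate against 1 µM phenylarsine oxide and 0.1% DMSO, compounds added 24 h after seeding.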

SMILES	normalised cell viability [1]	normalised cell viability [2]	normalised cell viability [3]	normalised cell viability [4]	normalised cell viability [5]	normalised cell viability [6]
N#CC(C#N)=C(N)/C(C#N)=C/c1cc(O)c(O)c(O)c1 [Tyrphostin 51]	0.989 ± 0.0061	1.013 ± 0.0058	1.02 ± 0.021	1.01 ± 0.011	1.01 ± 0.012	0.996 ± 0.013
O=C(c1ccccc1)c1ccc2n1CCC2C(=O)O (stereo unspecified) [Ketorolac tris salt]	0.9873 ± 0.0065	0.969 ± 0.027	0.991 ± 0.017	0.99 ± 0.044	0.989 ± 0.002	0.988 ± 0.012
CCN(CC)CCCC(C)Nc1nc(C)cc(Nc2ccc3nc(C)cc(N)c3c2)n1 (stereo unspecified)	0.845 ± 0.0082	0.444 ± 0.019	0.888 ± 0.01	0.688 ± 0.036	1 ± 0.013	0.119 ± 0.0062
CNC(=O)[C@H]1O[C@@H](n2cnc3c(NCc4cccc(I)c4)nc(Cl)nc32)[C@H](O)[C@@H]1O [Chloro-IB-MECA]	0.9927 ± 0.0084	0.918 ± 0.014	0.9917 ± 0.0076	1 ± 0.016	0.9923 ± 0.0072	0.9763 ± 0.006
O=C(C[S+]([O-])Cc1ccco1)NC/C=C\COc1cc(CN2CCCCC2)ccn1 (stereo unspecified) [Lafutidine]	1.02 ± 0.021	1.02	1.04 ± 0.015	1.03 ± 0.033	1.01 ± 0.01	1.01
C#CCC(Cc1cnc2nc(N)nc(N)c2n1)c1ccc(C(=O)N[C@@H](CCC(=O)O)C(=O)O)cc1 (stereo partly specified) [pralatrexate]	0.415 ± 0.03	0.396 ± 0.032	0.628 ± 0.032	0.574 ± 0.014	0.228 ± 0.0091	0.234 ± 0.025
CN(C)CC(c1ccc(O)cc1)C1(O)CCCCC1 (stereo unspecified) [Desvenlafaxine]	0.989 ± 0.028	0.97 ± 0.0036	0.991 ± 0.011	0.978 ± 0.013	0.983 ± 0.016	0.9943 ± 0.0038
CN(C)CC(c1ccc(O)cc1)C1(O)CCCCC1 (stereo unspecified) [Desvenlafaxine Succinate]	1.02 ± 0.015	1.02 ± 0.035	1.01 ± 0.011	1.01 ± 0.014	1.001 ± 0.0078	1.006 ± 0.0075
O=C(NOCC(O)CO)c1cc(Br)c(F)c(F)c1Nc1ccc(I)cc1F (stereo unspecified)	0.62 ± 0.022	0.53 ± 0.028	0.715 ± 0.0062	0.669 ± 0.029	0.64 ± 0.027	0.418 ± 0.011
COc1ccc(S(=O)(=O)N(CCO)c2ccccc2CN(C)C/C=C/c2ccc(Cl)cc2)cc1 [KN-93 Phosphate]	1.013 ± 0.0058	0.853 ± 0.029	1.03 ± 0.011	0.888 ± 0.048	1.02 ± 0.01	0.964 ± 0.01
COc1cccc(C(=O)NCCN2CCN(c3ccc(Cl)cc3)CC2)c1	1.01 ± 0.01	0.995 ± 0.023	1.02 ± 0.055	1.005 ± 0.0071	1.013 ± 0.0058	1.013 ± 0.0058
O=C1NC(=O)C(=Cc2ccc(-c3ccc(F)cc3)o2)S1 (stereo in doubt)	1 ± 0.018	1 ± 0.014	0.996 ± 0.013	1.01	0.991 ± 0.0027	0.9913 ± 0.0083
O=C1NC(=O)C(c2ccccc2)(c2ccccc2)N1 [5,5-Diphenylhydantoin]	1 ± 0.014	0.975 ± 0.027	0.988 ± 0.007	0.982 ± 0.013	0.99 ± 0.0078	0.9847 ± 0.0047
CN(C)C/C=C/C(=O)Nc1cc2c(Nc3ccc(F)c(Cl)c3)ncnc2cc1O[C@H]1CCOC1 [BIBW2992; BIBW2992(Tovok)]	0.904 ± 0.02	1.01 ± 0.023	0.9247 ± 0.0074	0.982 ± 0.019	0.897 ± 0.012	0.9953 ± 0.0045
CN(C)C/C=C/C(=O)Nc1cc2c(Nc3ccc(F)c(Cl)c3)ncnc2cc1O[C@H]1CCOC1 [Afatinib (BIBW2992)]	0.91 ± 0.015	0.761 ± 0.058	0.925 ± 0.022	0.797 ± 0.044	0.8623 ± 0.0057	0.61 ± 0.02
CN1Cc2c(N)cccc2C(c2ccccc2)C1 (stereo unspecified) [Nomifensine maleate]	0.999 ± 0.011	0.997 ± 0.022	0.99967 ± 0.00058	1.06 ± 0.064	1.01	1.02 ± 0.011
CNC(=O)c1ccc(C)c(-n2c(C)cc(OCc3ccc(F)cc3F)c(Br)c2=O)c1	0.791 ± 0.021	0.729 ± 0.03	0.771 ± 0.025	0.7697 ± 0.0051	1.007 ± 0.0058	0.9993 ± 0.0011
CNC(=N)NCCC[C@H](N)C(=O)O [NG-Monomethyl-L-arginine acetate]	1.001 ± 0.009	0.985 ± 0.022	1.001 ± 0.0081	0.879 ± 0.24	0.9883 ± 0.0097	0.991 ± 0.0079
NC(=O)c1cccc(N)c1 [3-aminobenzamide]	1 ± 0.014	1.02 ± 0.032	0.9957 ± 0.0075	1 ± 0.021	1.002 ± 0.0068	1.007 ± 0.0058
NC(=O)c1cccc(N)c1 [3-Aminobenzamide]	0.995 ± 0.0052	1.02	0.998 ± 0.0035	1.02 ± 0.01	1.02 ± 0.011	1.017 ± 0.0058
Cc1ccc(-n2nc(C(C)(C)C)cc2NC(=O)Nc2ccc(OCCN3CCOCC3)c3ccccc23)cc1 [BIRB 796 (Doramapimod)]	0.806 ± 0.012	0.826 ± 0.03	0.775 ± 0.019	0.816 ± 0.034	0.995 ± 0.005	1.017 ± 0.0058
COCCc1ccc(OCC(O)CNC(C)C)cc1 (racemic) [(±)-Metoprolol (+)-tartrate]	0.9903 ± 0.006	0.9673 ± 0.0059	0.995 ± 0.0036	1.02 ± 0.073	0.9913 ± 0.0011	0.998 ± 0.012
CN(C)CC/C=C1/c2ccccc2COc2ccc(CC(=O)O)cc21 [Olopatadine HCl]	1.01 ± 0.022	1.03 ± 0.015	1.01 ± 0.01	1.02 ± 0.036	1.002 ± 0.0068	1.006 ± 0.0069
O=C(O)C1=CCCN(CCON=C(c2ccccc2)c2ccccc2)C1 [NO-711 hydrochloride]	1.003 ± 0.0058	0.994 ± 0.02	0.996 ± 0.015	1.03 ± 0.026	1.01	1.01 ± 0.015
Nc1ncnc2n[nH]c(Nc3ccc(F)cc3)c12	0.9963 ± 0.0021	0.733 ± 0.029	1.03 ± 0.04	0.9867 ± 0.0078	0.994 ± 0.006	0.904 ± 0.017
CN(C)Cc1ccc(S(=O)(=O)n2ccc(/C=C/C(=O)NO)c2)cc1 [Resminostat]	0.941 ± 0.011	0.92 ± 0.018	0.961 ± 0.011	1.023 ± 0.0058	1.001 ± 0.0081	0.214 ± 0.026
